Test results published in PubChem BioAssay AID1345083 (National Center for Advancing Translational Sciences (NCATS), 2018).
The whole screen tested about 94,000 compounds, of which about 6,200 (6.6%) were called active. The shares of active, inactive and inconclusive entries below differ from those in the screen. Calls follow the shape of the dose curve; as a rule, active = well fitted inhibition curve with a large enough effect; inconclusive = small, poorly fitted or top-dose-only effect; inactive = flat fitted curve, though single readings scatter. Potencies beside an inconclusive call are fits to weak or partial responses and may not hold up.

experiment: Cytotoxic Profiling in HEK 293 Cell Line of Diverse Libraries Using Quantitative High-Throughput Screening; details: HEK 293 viability, ATP luminescence (CellTiter-Glo), 48-72 h; activity change, negative = cytotoxicity: at 115 µM (top of the series) unless noted; series mostly up to 115 µM; also: nearly all actives have a fitted effect of over 60% in size
Method in brief: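 qHTS cytotoxicity; HEK 293, 250 cells/well; compound pinned; 48 or 72 hr, 37 degree Celsius, 5% CO2, 95% humidity; CellTiter-Glo, 10 min RT; luminescence (ATP).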
% is scaled to controls: 0 for no effect and ±100 for the full control effect; potency is read from the fitted curve at half-maximal effect; tags tell the direction and shape of the fitted curve.

Structure (SMILES) | Potency | activity change, negative = cytotoxicity
Cc1oc(C(O)c2ccccc2F)nc1C(=O)Nc1ccc2[nH]c(=O)[nH]c2c1 (stereo not drawn) | inconclusive: 126 µM [inhibitor, single point] | 
Cc1cc(C(=O)NC(C)c2nc3ccccc3[nH]2)cc(S(N)(=O)=O)c1C (stereo not drawn) | inconclusive: 89.1 µM [inhibitor, single point] | 
Cc1cnc(C(=O)NC2CC(=O)N(Cc3cccc4ccccc34)C2)cn1 (stereo not drawn) |  | inactive: -0.318%
COc1ncc(C(=O)NCc2cccnc2N2CCN(C(C)=O)CC2)cn1 |  | inactive: -18%
COc1ccccc1C(=O)Nc1ccc([C@@H](O)[C@H]2COCC(=O)N2Cc2ccccc2F)cc1 | inconclusive: 79.4 µM [inhibitor, partial curve] | 
Cc1cn2nc(C(=O)NCc3ccccc3F)cc2c(N2CCCC2)n1 | inconclusive: 89.1 µM [inhibitor, single point] | 
Cn1cc(CN2CCOC[C@H]2c2ncc(C(C)(C)C)[nH]2)c2ccccc21 | active: 63.1 µM | 
CC1=Nc2cc(C(=O)NC(C)c3ccc4c(c3)OCCO4)ccc2Sc2ccc(Cl)cc21 (stereo not drawn) | inconclusive: 22.4 µM [inhibitor, full curve, poor fit] | 
CCn1ccc2oc(C)c(C(=O)NCc3ccccc3Cl)c2c1=O | inconclusive: 50.1 µM [inhibitor, partial curve, poor fit] | 
COc1cccc(CN2C(=O)CCCCC2C(=O)NCCc2ccc(OC)c(OC)c2)c1 (stereo not drawn) |  | inactive: -10.4%
CC(=O)N1CCCC(C(=O)N2CCCC(c3nc4ncccc4[nH]3)C2)C1 (stereo not drawn) |  | inactive: -7.5%
COc1cccc(CN2Cc3cc(NC(=O)c4ccc([N+](=O)[O-])cc4)ccc3OCC2=O)c1OC | active: 39.8 µM | 
CCCS(=O)(=O)N1CC(Oc2ccccc2-c2nc(C3CC3)no2)C1 | inconclusive: 79.4 µM [inhibitor, partial curve] | 
COc1cccc(S(=O)(=O)N2CCC3(C2)C(=O)Nc2ccccc23)c1 (stereo not drawn) |  | inactive: -27.4%
N#CC1CCN(C(=O)CNC(=O)c2cccc(-c3ccc(C(F)(F)F)cc3)c2)CC1 | inconclusive: 8.91 µM [inhibitor, full curve, poor fit] | 
Cc1ccc(N2CCN(C(=O)c3cc4n(n3)CC(c3ccc(Cl)cc3)OC4)CC2)c(C)c1 (stereo not drawn) | inconclusive: 50.1 µM [inhibitor, partial curve, poor fit] | 
CCc1cc(N2CCOCC(O)(CN3CCCC3)C2)nc(N2CCCC2)n1 (stereo not drawn) | inconclusive: 56.2 µM [inhibitor, partial curve, poor fit] | 
NC(=O)c1cccc(CN2CCC3(Cc4ccccc4N(C(=O)C4CCCC4)C3)C2)c1 (stereo not drawn) | active: 79.4 µM | 
O=C(CC1CC1)N1CCC(Oc2cnc3c(ccn3-c3cncnc3)c2)CC1 | inconclusive: 112 µM [inhibitor, partial curve] | 
CCc1nc(-c2c3n(c(=O)n(CC(=O)Nc4ccccc4OC)c2=O)CCCCC3)no1 |  | inactive: 1.11%
COc1ccccc1-c1ccnc(N[C@H]2CO[C@H]3[C@@H]2OC[C@@H]3NC(=O)c2ccccc2)n1 | inconclusive: 126 µM [inhibitor, single point] | 
CC(Cn1cccn1)C(=O)N1CCc2[nH]nc(-c3ccc(Cl)cc3)c2C1 (stereo not drawn) | inconclusive: 50.1 µM [inhibitor, partial curve, poor fit] | 

Structure (SMILES) | Potency | activity change, negative = cytotoxicity
COc1cccc(-c2ccc(CN3CCCC(NC(=O)c4ccncc4)C3)cc2)c1 (stereo not drawn) | active: 22.4 µM | 
COCCN(C)C(=O)c1cn2cc(-c3cccc(Cl)c3)n(CC3CC3)c(=O)c2n1 |  | inactive: -19.9%
Cc1ccccc1CN1CCc2c(n(Cc3ccccc3)n(-c3ccccc3)c2=O)C1 | active: 89.1 µM | 
COc1cc(OC)c(C(=O)N2CCC3(CC2)[C@H](O)C[C@@H]3OC)cc1OC |  | inactive: -14.9%
O=c1n(-c2ccc(Cl)cc2)nc2n1CCN([S+](=O)([O-])c1ccccc1)C2 | inconclusive: 89.1 µM [inhibitor, single point] | 
COc1cccc(-c2cn3cc(C(=O)NCc4ccccn4)nc3s2)c1 | inconclusive: 56.2 µM [inhibitor, partial curve, poor fit] | 
CCn1c(COc2ccc(C)nc2)nnc1C1CC(N)C1 (stereo not drawn) |  | inactive: -9.96%
O=C(c1ccc2c(c1)OCO2)N1CCCN(c2ccnc3ccnn23)CC1 | inconclusive: 50.1 µM [inhibitor, partial curve, poor fit] | 
O=C1N2CCCC2CN1C1CCN(Cc2ccc(C(F)(F)F)cc2)CC1 (stereo not drawn) | active: 39.8 µM | 
O=C(Nc1ccccc1)[C@H]1O[C@H](CCN2CCN(c3ccc(F)cc3)CC2)CC[C@@H]1O | inconclusive: 100 µM [inhibitor, partial curve] | 
COc1ccc(-c2cnc([C@@H]3COCCN3Cc3csnn3)[nH]2)cc1 |  | inactive: 4.19% [at 172 µM]
O=C(c1ccc2[nH]ccc2c1)N1CCC2(CC1)Nc1ccccc1NC2=O | active: 39.8 µM | 
COc1ccccc1-c1ccc(C(=O)N2CCC(NC(=O)Nc3ccc(Cl)cc3)CC2)cc1 | active: 31.6 µM | 
COc1ccc(-c2noc([C@@H]3C[C@@H](O)CN3Cc3cccs3)n2)cc1 |  | inactive: -22.5% [at 172 µM]
COc1cccc(C(=O)NC2CCCN(c3cc(-c4ccccc4)[nH]n3)C2)c1OC (stereo not drawn) | inconclusive: 56.2 µM [inhibitor, partial curve, poor fit] | 
O=C1CCN(C(=O)c2ccco2)CCCC(c2nc(-c3ccccc3)no2)CCN1 (stereo not drawn) |  | inactive: -28.2%
CC(C)NC(=O)C[C@@H]1CCNC[C@@H]1Cc1cc(-c2ccccc2)on1 |  | inactive: -27.2% [at 172 µM]
COc1ccccc1CCC(=O)N1CCC(Cc2nc(-c3ccccc3)no2)CC1 | inconclusive: 44.7 µM [inhibitor, partial curve, poor fit] | 
CCOC(=O)[C@@H]1CN(C(=O)c2cc3ccccc3s2)[C@H]2c3ccccc3O[C@@H]12 | inconclusive: 89.1 µM [inhibitor, single point] | 
Cc1cccc(-c2noc(CCC(=O)N3CCC(C)(c4noc(C)n4)CC3)n2)c1 | active: 44.7 µM | 
CCn1ncc(N2CCCC(CC(=O)Nc3ccc(F)c(F)c3)C2)cc1=O (stereo not drawn) | inconclusive: 56.2 µM [inhibitor, partial curve, poor fit] | 
